# From PubChem BioAssay AID624417 (National Center for Advancing Translational Sciences (NCATS), 2012)
# Screen size: about 410,000 compounds; about 6,400 (1.6%) were called active. Inconclusive means that the source gave no clear call. Such entries were picked first, then a sample of the others. Calls come from the whole dose curve; as a rule, active = well fitted inhibition curve with a large enough effect; inconclusive = small, poorly fitted or top-dose-only effect; inactive = no such curve, though single readings can be large or run the other way. No potency is given beside an inconclusive call; the fits are too rough.
# Target: Glucagon-like peptide 1 receptor (Homo sapiens) (UniProt P43220)
# Sequence of UniProt P43220 (P43220 whole entry, looked up): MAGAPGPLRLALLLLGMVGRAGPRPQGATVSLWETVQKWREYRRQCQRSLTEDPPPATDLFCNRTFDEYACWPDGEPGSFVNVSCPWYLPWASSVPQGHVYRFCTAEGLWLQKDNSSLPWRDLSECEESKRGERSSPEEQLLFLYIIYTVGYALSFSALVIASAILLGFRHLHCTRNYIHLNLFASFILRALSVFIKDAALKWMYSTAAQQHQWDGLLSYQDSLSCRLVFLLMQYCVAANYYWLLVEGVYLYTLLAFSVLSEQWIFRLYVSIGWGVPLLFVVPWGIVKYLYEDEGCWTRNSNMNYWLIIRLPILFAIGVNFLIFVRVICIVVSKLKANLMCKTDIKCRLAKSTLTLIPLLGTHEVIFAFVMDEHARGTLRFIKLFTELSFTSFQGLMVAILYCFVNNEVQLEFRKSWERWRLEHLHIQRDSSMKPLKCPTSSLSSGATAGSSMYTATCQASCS
# Test: qHTS of GLP-1 Receptor Inverse Agonists (Inhibition Mode); note: nearly all actives have a fitted effect of over 55% in size
# Details: HEK293 GLP-1R CRE-luciferase, luminescence, 24 h, GLP-1R form is constitutively active; series mostly up to 38.3 µM
# Summary of the method: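 Seeding at 200 cells/uL, 12 h culture, 24 hr compound treatment, then luciferase reagent and a luminescence read; cells are HEK293 stably expressing a constitutively active GLP-1R plus cAMP-responsive luciferase.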
# Potency is the fitted concentration of half-maximal effect; tags give direction and shape of the fitted curve.
row,SMILES,Potency
1,CC(C)(C)NC(=O)NC(=O)CN1CCN(c2ncc(C(F)(F)F)cc2Cl)CC1,"inconclusive [inhibitor, full curve, poor fit]"
2,c1ccc(CN2CCC(Nc3nc(-c4cccs4)nc4ccccc34)CC2)cc1,active: 7.08 µM
3,Nc1nc(Nc2ccccc2)sc1C(=O)c1ccccc1,"inconclusive [inhibitor, partial curve, poor fit]"
4,Cc1ccc(NC(=S)NC(NC(=O)N(C)C)C(Cl)(Cl)Cl)cc1 (stereo unspecified),"inconclusive [inhibitor, single point]"
5,Cc1ccc(NC(=O)C(OC(=O)c2ccc(C=O)cc2)c2ccccc2)cc1Cl (stereo unspecified),"inconclusive [inhibitor, single point]"
6,O=C1NN(c2ccccc2)C(=O)/C1=C/c1ccc(-c2ccc(Cl)c(C(=O)O)c2)o1,"inconclusive [inhibitor, full curve, poor fit]"
7,COC(=O)Cc1[nH]n(-c2nc3ccccc3s2)c(=O)c1C(C)=Nc1ccc(C)cc1,"inconclusive [inhibitor, partial curve]"
8,CC(C)(COC(=O)Nc1ccccc1)COC(=O)Nc1ccccc1,"inconclusive [inhibitor, partial curve, poor fit]"
9,O=C(N/N=C/c1ccccn1)c1ccc(NC(=O)c2cccc([N+](=O)[O-])c2)cc1,"inconclusive [inhibitor, single point]"
10,CN1CCN(Cc2cn[nH]c2-c2ccc(F)cc2F)[C@@H](c2ccccc2)C1,"inconclusive [inhibitor, partial curve, poor fit]"
11,COc1ccc(C(=O)NC2CC3CCCC(C2)N3Cc2ccccc2)cc1 (stereo unspecified),inactive
12,c1ccc(-c2ccc3c(c2)c2c4n3CCN=C4CCC2)cc1,inactive
13,CCC(Oc1ccccc1)C(=O)NC1CCCCCC1 (stereo unspecified),active: 10 µM
14,Cc1[nH]n(-c2ccccc2)c(=S)c1C=NCCCN=Cc1c(C)[nH]n(-c2ccccc2)c1=S,"inconclusive [inhibitor, full curve, poor fit]"
15,Cc1cccc(N2CCN(C(=O)Cn3c(C)c4cnn(-c5ccccc5)c(=O)c4c3C)CC2)c1C,"inconclusive [inhibitor, partial curve, poor fit]"
16,CCc1ccc(C(C)NC(=O)c2cccs2)cc1 (stereo unspecified),"inconclusive [inhibitor, single point]"
17,Cc1ccc(-c2cc(-c3ccccc3)c3c(N)c(S(C)(=O)=O)sc3n2)cc1,"inconclusive [inhibitor, single point]"
18,O=C(C(c1ccccc1)c1ccccc1)N1CCCc2ccccc21,active: 5.01 µM
19,O=S(=O)(c1ccccc1)N1CC2CC(Br)C(Br)CC21 (stereo unspecified),"inconclusive [inhibitor, single point]"
20,O=C(COc1ccc2ccccc2c1)Nc1ccc(Br)cc1C(=O)O,"inconclusive [inhibitor, partial curve, poor fit]"
21,O=C(O)CC/C(=N\Nc1ccc([N+](=O)[O-])cc1)c1ccccc1,"inconclusive [inhibitor, single point]"

row,SMILES,Potency
1,O=C(CC1C(=O)NCCN1Cc1ccc(F)cc1Cl)NC1CCCCCCC1 (stereo unspecified),"inconclusive [inhibitor, full curve, poor fit]"
2,COc1ccccc1CNC(=O)c1cccc(S(=O)(=O)N(C)c2ccccc2)c1,"inconclusive [inhibitor, single point]"
3,COc1ccc(-c2csc(NC(C)c3nc4cc(Cl)c(Cl)cc4n3CCOCCO)n2)cc1 (stereo unspecified),"inconclusive [inhibitor, single point]"
4,C[C@@]12C(=O)Nc3cc(Cl)ccc3C(=O)N1[C@H]1c3cc(Br)ccc3OC[C@@H]1[C@@H]2c1ccccc1,"inconclusive [inhibitor, single point]"
5,COc1cccc(OC)c1OCCN1CCC(C(=O)NC(c2ccccc2)c2ncccc2C)CC1 (stereo unspecified),inactive
6,Cc1cccc(N2CCN(Cc3nc(-c4cccc(Cl)c4)oc3C)CC2)n1,"inconclusive [inhibitor, single point]"
7,O=C(CSc1ccc2ccccc2n1)N1CCC(c2noc3ccc(F)cc23)CC1,"inconclusive [inhibitor, single point]"
8,Cc1ccc(S(=O)(=O)NCC(=O)N(CC(=O)NCC2CCCO2)Cc2ccccc2Cl)cc1 (stereo unspecified),inactive
9,O=C(Nc1ccc(Cl)cc1)[C@@H]1[C@@H]2C(=O)N(c3ccc(Cl)cc3)C(=O)[C@@H]2[C@H]2C=CC=NN21,inactive
10,O=C(/C=C/c1ccc(Cl)cc1)NCCc1ccccc1,"inconclusive [inhibitor, single point]"
11,Cn1c(C(=O)N2CCCC(C(=O)O)C2)cc2sccc21 (stereo unspecified),inactive
12,O=S(=O)(NC1CCCCC1Oc1ccccc1)c1ccc(Cl)cc1 (stereo unspecified),"inconclusive [inhibitor, partial curve, poor fit]"
13,CCOc1ccc2[nH]c(=O)c(CN(CCCO)S(=O)(=O)c3ccc(F)cc3)cc2c1,inactive
14,Cc1ccc(-c2noc(CN(C)C(=O)Nc3ccc(F)cc3)n2)cc1,"inconclusive [inhibitor, single point]"
15,Cc1cccc(COCC(Cc2ccccc2)N2CCN(C(=O)c3cccc(Cl)c3)CCC2=O)c1 (stereo unspecified),"inconclusive [inhibitor, full curve, poor fit]"
16,Cc1cc(C)n2c(Nc3c(C)cccc3C)c(CCc3ccccc3)nc2n1,inactive
17,CSC1=C(C#N)C(C)C2=C(CC(C)(C)CC2=O)N1 (stereo unspecified),"inconclusive [inhibitor, partial curve]"
18,COc1ccccc1C#CC1=CC(=O)C[C@H](c2ccc(F)cc2)C1,"inconclusive [inhibitor, partial curve, poor fit]"
19,C=C(C)CNC(=S)Nc1cccc2cnccc12,inactive
20,CCN1CCN(C(=S)Nc2ccc(Cl)cc2)CC1,"inconclusive [inhibitor, full curve]"
